According to the RNAGym collection of RNA variant scans (doi:10.7554/elife.90254):
Read counts are not given, so values of variants with three or more changes are uncertain.

B1: LINE1-full (parent)
chain: UACGUAGGUGGUUUUCCCCUGAUAGUGCUAAGGGGGCCUGGAAGUUUGGACUGGGCAGAGCUCAACACAGCGUGGCAAAGUGGCUGUGGCUAGACUGCCUCUCUGGAUUCCUCGUCACUCAGCAGGGCAUCUCUGAGAGAAAUGCC

Variants of: B1
Experiment: self-cleavage, relative activity (ratio to wild type); higher = more cleavage; in vitro, sequencing; the parent is a self-cleaving ribozyme

Variant | self-cleavage
UACGUAGGUGGUUUUCCCCUGAUAGCGCUAAGGGGGCCUGGAAGUUGGGACUGGGCAGAGCCCAACACAGCGUGGCAAAGUGGCUGUGGCUAGACUGCCUCUCUGGAUUCCUCGUCACUCAGCAGGGCAUCUCUGAGAGAAAUGCC [U26C U47G U62C] | 0.27
UACGUAGGUGGUUUUCCCCUGAUAGCGCUAAGGGGGCCUGGAAGUUUGGACCGGGCAGAGCUCCACACAGCGUGGCAAAGUGGAUGAGGCUAGGCUGCCUCUCUGGAUUCCCCGUCACUCAGCAGGGCAUCUCUGAGAGAAAUGCC [U26C U52C A64C C84A U87A A94G U112C] | 0
UACGUAGGUGGUUUUCCCCUGAUAGCGCUAAGGGGGCCUGGAAGUUCGGACUGGGCAGAGCUCAACACAGCGCGGCAAAGUGGCUGUGGCUAGACUGCCUCUCUGGAUUCCUCGUCACUCAGCAGGGCAUCUCUGAGAGAAAUGCC [U26C U47C U73C] | 1.84
UACGUAGGUGGUUUUCCCCUGAUAGCGCUAAGGGGGCCUGGAAGUUGGGACUGGGCAGAGCUCAACACAGCGUGGCAGAGUGGCUGUGGCUAGUCUGCCUCUCUGGAUUCCUCGUCACUCAGCAGGGCAUCUCUGAGAGAAAUGCC [U26C U47G A78G A94U] | 0.28
UACGUAGGUGGUUUUCCCCUGAUAGCGCUAAGGGGGCCUGGAAGUUUGGACUGGGCAGAGCUCAACACAGCGUGGCAAAGUGGCCGUGGCUAGACUGCCUCUCUGGAUUCCUCGUCACUCAGCAGGGCAUCUCUGAGGGAAAUGCC [U26C U85C A138G] | 0.28
UACGUAGGUGGUUUUCCCCUGAUAGCGCUAAGGGGGCCUGGAAGCUUGGACUGGGCAGAGCUCAACACAGCGUGGCAAAGUGGCUGUGGCUAGACUGCCUCUCUGGAUUCCUCGUCACUCAGCUGGGCAUCUCUGAGAGAAAUGCC [U26C U45C A124U] | 2.35
UACGUAGGUGGUUUUCCCCUGAUAGCGCUAAGGGGGCCUGGAAGUCUGGACUGGGCGGAGCUCAACACAGCGUGGCAAAGUGGCUGUGGCUAGACUGCCACUCUGGAUUCCUCGUCACUCAGUAGGGCAUCUCUGAGAGAAAUGCC [U26C U46C A57G U100A C123U] | 1.08
UACGUAGGUGGUUUUCCCCUGAUAGCGCUAAGGGGGCCUGGAAGUUUGGACUGGGCAGAGCUCAACACAGCGUGGCAAAGUGGCUGUGGCUAGACCGCCUCUCUGGAUUCCUCGUCACUCAGCAGGGCAUCUCCGUGAGAAAUGCC [U26C U96C U134C A136U] | 0.1
UACGUAGGUGGUUUUCCCCUGAUAGCGCUAAGGGGGCCUGGAAGUUUGGACUGGGCAGAGCUCAACACAGCGUGGCAAAGUGGCUGUGGCUAGACUGCCUCUCAGGAUUCCUCGUUACUCAGCAGGGCAUCUCUGAGAGAAAUGCC [U26C U104A C116U] | 1.1
UACGUAGGUGGUUUUCCCCUGAUAGCGCUAAGGGGGCCUGGAAGUUUGGACUGGGCAGAGCUCAACACAGCGUGGCAAAGUGGCUGUGGCUAGACGGCCUCUCUGGAUUCCUCGUCACUCGGCAGGGCAUCUCUGAGAGAAAUGCC [U26C U96G A121G] | 0.84
UACGUAGGUGGUUUUCCCCUGAUAGCGCUAAGGGGGCCUGGAAGUAUGGACUGGACAGAGCUCAACACAGCGUGGCAAAGUGGCUGUGGCUAGACUGCCUCUCUGGAUUCCUCGUCACUCAGCAGGGCAUCUCUGAGAGAAGUGCC [U26C U46A G55A A142G] | 0.2
UACGUAGGUGGUUUUCCCCUGAUAGCGCUAAGGGGGCCUGGAAGUCUGGACUGGGCAGAGCUCAACACAGCGUGGCAAAGUGGCUGUGGCUAGACUGCCUCUCUGGAUUCCUCGUCACACAGCGGGGCAUCUCUGAGAGAAAUGCC [U26C U46C U119A A124G] | 0
UACGUAGGUGGUUUUCCCCUGAUAGCGCUAAGGGGGCCUGGAAGUUUGGACUGGGCAGAGCUCAACACAGCGCGGCAAAGUGGCUGUGGCUAGACUGCCUCUCUGGAUUCCUCAUCACUCAGCAGGGCAUCUCUGAGAGAAAUGCC [U26C U73C G114A] | 2.94
UACGUAGGUGGUUUUCCCCUGAUAGCGCUAAGGGGGCCUGGAAGUCUGGACUGGGCAGAGCUCAACACAGCGUGGCAAAGUGGCUGUGGCUAGACUGCCUCCCUGGAUUCCUCGUCACUCAGCAGGGCAUCUCUGAGAGAAAUGCC [U26C U46C U102C] | 0.35
UACGUAGGUGGUUUUCCCCUGAUAGCGCUAAGGGGGCCUGGAAGUUUGGACUGGGCAGAGCACAACACAGCGUGGCAAAGUGGCUGUGGCUAGACUGCCUCUCUGGAUUCCUCGGCACUCAGCAGGGCAUCUCUGAGAGAAAUGCC [U26C U62A U115G] | 0
UACGUAGGUGGUUUUCCCCUGAUAGCGCUAAGGGGGCCUGGAAGUUUGGACUGGGCAGAGCUCAACACAGCGUGGCAAAGUGGCUGUGGCUAGACCGCCUCUCUGGAUUCCUCGUCACUCAGCAGGGCAUCUCUGAGAGGAAUGCC [U26C U96C A140G] | 0
UACGUAGGUGGUUUUCCCCUGAUAGCGCUAAGGGGGCCUGGAAGUUGGGACUGGGCAGAGCUCAACACAGCGUGGCAAAGAGGCUGUGGCUAGACUGCCUCUCUGGAUUCCUCGUCACUCAGCAGGGCGUCUCGGAGAGAAAUGCC [U26C U47G U81A A129G U134G] | 1.31
UACGUAGGUGGUUUUCCCCUGAUAGCGCUAAGGGGGCCUGGAAGUUUGGACGGGGCAGAGCUCAACACAGCGUGGCAAAGUGGCUGAGGCUAGACUGCCUCUCUGGAUUCCUCGCCACUCAGCAGGGCAUCUCUGAGAGAAAUGCA [U26C U52G U87A U115C C146A] | 0
UACGUAGGUGGUUUUCCCCUGAUAGCGCUAAGGGGGCCUGGAAGUUCGGACUGGGCAGAGCUCAACACAGCGUGGCAAAGUGGCUGAGGCUAGACUGCCUCUCUGGAUUCCUCGUCACUCAGCAGGGCAUCUCUGAGAGAAAUGCC [U26C U47C U87A] | 0.04
UACGUAGGUGGUUUUCCCCUGAUAGCGCUAAGGGGGCCUGGAAGUUUGGACUGGGCAGAGCUCAACACAGCGGGGCAAAGUGGCUGUGGCUAGACUGCAUCUCUGGAUUCCCCGUCACUCAGCAGGGCAUCUCUGAGAGAAAUGCC [U26C U73G C99A U112C] | 0.43

Variant | self-cleavage
UACGUAGGUGGUUUUCCCCUGAUAGCGCUAAGGGGGCCUGGAAGUUUGGACUGGGCAGAGCCCAACACAGCGUGGCAAAGUGGCUGAGGCUAGACUGCCUCUCUGGAUUUCUCGUCACUCAGCAGGGCAUCUCUGAGAGAAAUGCC [U26C U62C U87A C110U] | 0.08
UACGUAGGUGGUUUUCCCCUGAUAGCGCUAAGGGGGCCUGGAAGUUUGGACUGGGCAGAGCUCAACACAGCGUGGCAAAGUGGCUGUGGCUAGACUGCCUCACUGGAUUCCUCGUCACUCAGCAGGGCAUCUCUGAGAGGAAUGCC [U26C U102A A140G] | 1.35
UACGUAGGUGGUUUUCCCCUGAUAGCGCUAAGGGGGCCUGGAAGUUUGGACUGGGCAGAGCUCAACACAGCGUGGCAAAGUGGCUGUGGCUAGACUGCCCCUCUAGAUUCCUCGUCACUCAGCAGGGCAUCUCUGAGAGAAAUGCC [U26C U100C G105A] | 1.78
UACGUAGGUGGUUUUCCCCUGAUAGCGCUAAGGGGGCCUGGAAGGUUGGACUGGGCAGAGCUCAACACAGCGUGGCAAAGUGGCUGUGGCUAGACUGCCUCUCUGGAUGCCUCGUCACUCAGCAUGGCGUCUCUGAGAGGAAUGCC [U26C U45G U109G G125U A129G A140G] | 0
UACGUAGGUGGUUUUCCCCUGAUAGCGCUAAGGGGGCCUGGAAGUUUGGACUGGGCAGAGCUCAACACAGCGUGGCAAAGUGGCUGUGGCUAGACUGCCUCUCCGGAUUCCUCGUCACUCAGCAGGGCAUCUCUGAGAGGAAAGCC [U26C U104C A140G U143A] | 1.13
UACGUAGGUGGUUUUCCCCUGAUAGCGCUAAGGGGGCCUGGAAGUUUGGACUGGGCAGAGCUCAACACAGCGUGGCAAAGUGGCUGUGGCUAGACUGCCUCCCUGGAUUCCUCGUCACUCAGCAGGGCUUCUCUGAGAGAAAUGCC [U26C U102C A129U] | 1.31
UACGUAGGUGGUUUUCCCCUGAUAGCGCUAAGGGGGCCUGGAAGUUUGGACUGGGCAGAGCUCAACACAGCGCGGCAAAGAGGCUGUGGCUAGACUGCCUCUCUGGAUUCCUCGUCACUCAGCAGGGCUUCUCUGAGAGAAAUGCC [U26C U73C U81A A129U] | 2.35
UACGUAGGUGGUUUUCCCCUGAUAGCGCUAAGGGGGCCUGGAAGUUUGGACAGGGCAGAGCUCAACACAGCGUGGCGAAGUGGCUGUGGCCAGACUGCCUCUCUGGAUUCCUCGUCACUCAGCAGGGCAUCUCUGAGUGAAAUGCC [U26C U52A A77G U91C A138U] | 1.08
UACGUAGGUGGUUUUCCCCUGAUAGCGCUAAGGGGGCCUGGAAGCUUGGACUGGGCAGAGCUCAACACAACGUGGCAAAGUGGCUGUGGCUAGACUGCCUCUCUGGAUUCCUCGUCACUCAGCAGGGCAUCUCUGAGAGAAAUGCC [U26C U45C G70A] | 0.18
UACGUAGGUGGUUUUCCCCUGAUAGCGCUAAGGGGGCCCGGAAGUUUGGACUGGGCAGAGCUCAACACAGCGUGGCAAAGUGGCUGUGGCUAGACUGCCCCUCUGGAUUCCUCGUCACUCAGCAGGGCAUCUCUGAGGGAAAUGCC [U26C U39C U100C A138G] | 1.78
UACGUAGGUGGUUUUCCCCUGAUAGCGCUAAGGGGGCCUGGAAGUCUGGACUGGGCAGAGCUCAACACAGCGUGGCAAAGUGGCUGUGGCUAGACUGCCUCUCUGGAUUCUCCGUCACUCAGCAGGGCAUCUCUGAGAGAAAUGCC [U26C U46C C111U U112C] | 1.28
UACGUAGGUGGUUUUCCCCUGAUAGCGCUAAGGGGGCCUGGAAGCUUGGACAGGGCAGAGCUCAACACAGCGUGGCAAGGUGGCUGUGGCUAGACUGCCUCUCUGGAUUCCUCGUCACUCAGCAGGGCAUCUCUGAGAGAAAUGCC [U26C U45C U52A A79G] | 0.92
UACGUAGGUGGUUUUCCCCUGAUAGCGCUAAGGGGGCCUGGAAGUUUGGACUGGGCAGAGCUCAACACAGCGAGGCAAAGUGGCUGUGGCUAGACUGCCUCUCUGGAUUCCCCGUCACUCAGCAGGGCAUCUCUGAGAGAAAUGCC [U26C U73A U112C] | 2.07
UACGUAGGUGGUUUUCCCCUGAUAGCGCUAAGGGGGCCUGGAAGUUAGGACUGGGCAGAGCUCAACACAGCGUGGCAAAGUGGCUGUGGCUAGACUGCCUCUCUGGAUCCCUCGUCACUCAGCAGGGCAUCUCUGAGAGAAAUGCC [U26C U47A U109C] | 0.72
UACGUAGGUGGUUUUCCCCUGAUAGCGCUAAGGGGGCCUGGAAGUUUGGACUGGGCAGAGCCCAACACAGCGUGGCAAAGUGGCUGUGGCUAGACUACCUCUCUGGAUUCCUCGUCACUCAGCAGGGCAUCUCUGAGAGAAAUGCC [U26C U62C G97A] | 0.02
UACGUAGGUGGUUUUCCCCUGAUAGCGCUAAGGGGGCCCGGAAGUUUGGACCGGGCAGUGCUCAACACAGCGUGGCAAAGUGGCUGAGGCUAGACUGCCUCUCUGGAUUCCUCGUCACUCAGCAGGGCAUCUCUGAGAGGAAUGCC [U26C U39C U52C A59U U87A A140G] | 0.24
UACGUAGGUGGUUUUCCCCUGAUAGCGCUAAGGGGGCCUGGAAGUCUGGACUGGGCAGAGCUCAACACAGCGUGGCAAAGUGGCUGUGGCUAGACUGCCUCUCUGGAUUCCUCGCCACUCAGCAGGGCAUCUCUGAGAGAGAUGCC [U26C U46C U115C A141G] | 2.3
UACGUAGGUGGUUUUCCCCUGAUAGCGCUAAGGGGGCCCGGAAGUUUGGACUGGGCAGAGCUCAACACAGCGUGGCAAAGUGGCUGUGCCUGGACUGCCUCUCUGGAGUCCUCGUCACUCAGCAGGGCAUCUCUGAGAGAAAUGCC [U26C U39C G89C A92G U108G] | 0
UACGUAGGUGGUUUUCCCCUGAUAGCGCUAAGGGGGCCUGGAAGUUUGGACUGGGCAGAGCUCAACACAGCGUGGCAAAGAGGCUGCGGCGAGACUGCCUCUCUGGAUUCCUCGUCACUCAGCAGGGCAUCUCUGAGAGAAAUGCC [U26C U81A U87C U91G] | 0
